Source: the supplement of paper PMC4967469

Key:
Experiment in all cases: Viability of human cancer cell lines after 72 h of drug (GDSC screen)
Crizotinib = compound: C[C@@H](Oc1cc(-c2cnn(C3CCNCC3)c2)cnc1N)c1c(Cl)ccc(F)c1Cl [Crizotinib]; details: top dose 2 µM
Description: (§1)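 Human cancer cell lines in 384-well plates, medium with 10% serum, drug for 72 h over a 256-fold dose range (nine 2-fold or five 4-fold steps up to the top dose). Adherent lines were fixed and stained with the nucleic acid dye Syto60, suspension lines read with resazurin; signal relative to control wells, capped at 0 and 100%. One two-parameter sigmoid per drug and line, fitted in a mixed model over all curves with the slope shared within a line.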

AKT inhibitor VIII = compound: O=c1[nH]c2ccccc2n1C1CCN(Cc2ccc(-c3[nH]c4cc5ncnc5cc4nc3-c3ccccc3)cc2)CC1 [AKT inhibitor VIII]; details: top dose inferred
Description: as §1

AICAR = compound: NC(=O)c1ncn([C@@H]2O[C@H](CO)[C@@H](O)[C@H]2O)c1N [AICAR]; details: top dose 2000 µM; top dose inferred
Description: as §1

[1] = top dose 2.56 µM, screen: GDSC drug entry 171
[2] = top dose 10.24 µM, screen: GDSC drug entry 228

Cell Line	AUC (Crizotinib)	IC50 (Crizotinib) [µM]	AUC (AKT inhibitor VIII; [1])	IC50 (AKT inhibitor VIII; [1]) [µM]	AUC (AKT inhibitor VIII; [2])	IC50 (AKT inhibitor VIII; [2]) [µM]	AUC (AICAR)	IC50 (AICAR) [µM]
ML-2 (acute myeloid leukaemia, suspension)	0.98	> 2	0.973	> 2.56	0.601	1.17	0.944	> 2000
MOLP-8 (myeloma, suspension)	0.888	> 2	0.936	> 2.56	0.675	1.92	0.757	666
MONO-MAC-6 (acute myeloid leukaemia, suspension)	0.94	> 2	0.865	2.47	0.379	0.291	0.666	372
MPP-89 (mesothelioma, adherent)	0.936	> 2	0.932	> 2.56	0.981	> 10.2	0.862	> 2000
NAMALWA (Burkitt lymphoma, suspension)	0.956	> 2	0.991	> 2.56	0.744	2.77	0.916	> 2000
NB6 (neuroblastoma, adherent)	0.98	> 2	0.973	> 2.56	0.951	> 10.2	0.951	> 2000
NCI-H211 (small cell lung carcinoma, adherent)	0.973	> 2	0.924	> 2.56	0.825	5.91	0.817	1080
NCI-H345 (small cell lung carcinoma, suspension)	0.99	> 2	0.951	> 2.56	0.99	> 10.2	0.95	> 2000
NCI-H720 (lung carcinoid, suspension)	0.959	> 2	0.992	> 2.56	0.991	> 10.2	0.818	1010
NCI-H747 (large intestine, adherent)	0.96	> 2	0.922	> 2.56	0.594	1.23	0.844	1930
NCI-H1770 (non-small cell lung carcinoma, suspension)	0.992	> 2	0.968	> 2.56	0.912	> 10.2	0.736	530
NCI-SNU-5 (stomach, suspension)	0.357	0.05	0.989	> 2.56	0.987	> 10.2	0.914	> 2000
NOMO-1 (acute myeloid leukaemia, suspension)	0.959	> 2	0.982	> 2.56	0.701	2.56	0.799	1120
OCI-AML3 (acute myeloid leukaemia, suspension)	0.99	> 2	0.973	> 2.56	0.689	1.98	0.891	1750
RL (B-cell lymphoma, suspension)	0.99	> 2	0.99	> 2.56	0.559	0.912	0.84	1220
SF539 (glioma, adherent)	0.574	0.195	0.982	> 2.56	0.954	> 10.2	0.948	> 2000
SH-4 (melanoma, adherent)	0.95	> 2	0.957	> 2.56	0.889	> 10.2	0.847	> 2000
SK-LMS-1 (soft tissue, adherent)	0.821	1.09	0.915	> 2.56	0.837	6.38	0.839	1270
SK-MEL-1 (melanoma, suspension)	0.99	> 2	0.993	> 2.56	0.936	> 10.2	0.98	> 2000
SK-N-DZ (neuroblastoma, adherent)	0.97	> 2	0.986	> 2.56	0.988	> 10.2	0.772	765
SR (lymphoid neoplasm, suspension)	0.513	0.135	0.921	> 2.56	0.768	3.47	0.647	304
ST486 (Burkitt lymphoma, suspension)	0.872	1.53	0.981	> 2.56	0.717	2.41	0.777	711
SW684 (fibrosarcoma, adherent)	0.982	> 2	0.971	> 2.56	0.978	> 10.2	0.776	1200
SW954 (urogenital system, adherent)	0.98	> 2	0.907	> 2.56	0.72	2.72	0.56	182
VA-ES-BJ (soft tissue, adherent)	0.956	> 2	0.935	> 2.56	0.946	> 10.2	0.8	1030

By IC50 is meant the dose at which the fit gives 50% viability; a limit (>, <) means that the fit lies beyond the doses tested. AUC is the area under the same curve over the 256-fold range up to the top dose, as a fraction; values near 1 show little effect. For some assays here: The top dose, if marked as inferred, was calculated from the reported fits. For some assays here: An entry number marks a drug with two screens in the source, which often give different values.
